PubChem BioAssay AID463173 (ICCB-Longwood Screening Facility, Harvard Medical School, 2010)
About 1,700 (3.3%) of roughly 52,000 compounds were called active. No stated cut-off is given here; in the data, active means survival mostly below about 52% (no sharp cut-off); inactive means mostly above about 56%. The list shows a part of the results.

These compounds were tested on Wild type (assay: S. aureus survival, RN4220 and DeltatarO strains – OD600, teichoic acid synthesis inhibitors, primary screen (AID 463173)). Settings: S. aureus RN4220 wild type/DeltatarO growth, OD600, 18 h, stronger effect = lower value, screened at 18.75 µg/mL (by protocol).

SMILES	survival
CCOC(=O)c1cc(-c2ccccc2)n(-c2cccc(C(=O)Nc3ccc(F)c(F)c3)c2)c1C	inactive: 68%
COc1ccccc1CNC(=O)CCn1c(=O)c2ccccc2n(CC(=O)Nc2cccc(Cl)c2)c1=O	inactive: 84%
Cc1c(NC(=O)c2cc(-c3ccc(Cl)c(Cl)c3)on2)c(=O)n(-c2ccccc2)n1C	inactive: 74%
CCOC(=O)c1ccc(NC(=O)CCCc2nc(-c3ccccc3Cl)no2)cc1	inactive: 75%
CCOc1ccc(S(=O)(=O)NCC(c2ccco2)S(=O)(=O)c2cccs2)cc1 (configuration not stated)	inactive: 74%
CCOc1ccc(-c2cc(NC(=O)Nc3cccc(C(C)=O)c3)c(C(=O)OC)s2)cc1	inactive: 81%
COc1ccc(N2CCN(C(=O)CCc3c(C)nn(-c4ccc(N5CCCC5)nn4)c3C)CC2)cc1	inactive: 77%
Cc1ccc(NC(=O)Nc2nnc(N(CC(C)C)CC(C)C)s2)cc1Cl	inactive: 89%
COc1ccc(OC)c(NC(=O)C2CCCN(S(=O)(=O)c3c(C)nn(C)c3C)C2)c1 (configuration not stated)	inactive: 74%
Cc1ccc(NC(=O)c2cnn3c(C(F)F)cc(-c4ccccc4)nc23)c(C)c1	inactive: 76%
O=C(O)c1ccc2c(c1)ncn2-c1ccc(F)c(F)c1	inactive: 82%
COc1cccc(N2CCN(C(=O)C(CCSC)NS(=O)(=O)c3ccc4c(c3)oc(=O)n4C)CC2)c1 (configuration not stated)	inactive: 124%
CCc1ccc(CNC(=O)Cc2ccc(NC(=O)N3CCSc4ncccc43)cc2)cc1	inactive: 87%
CCOC(=O)CSc1nc2ccc(NC(=O)c3ccc(C)cc3)cc2s1	inactive: 88%
OC1CN=C2C=CC=CN2C1 (configuration not stated)	inactive: 110%
COc1ccc(NC(=O)C2=C(C)Nc3ncnn3C2c2ccc(O)cc2)cc1 (configuration not stated)	inactive: 75%
CCCc1cc(=O)n(-c2ccc(C(=O)O)cc2)[nH]1	inactive: 111%
Cc1ccc(C)c(NC(=O)c2ccc3c(O)c(S(=O)(=O)c4ccc(Cl)cc4)c(=O)[nH]c3c2)c1	inactive: 86%
CCN(CC)c1nn2c(=O)c(C(=O)NCCc3ccccc3)cnc2s1	inactive: 59%

SMILES	survival
Cc1cc2c(cc1S(=O)(=O)NCc1ccccc1Cl)OCCN2C	inactive: 105%
O=C(O)C1CCCCC1C(=O)N1CCCCCC1 (configuration not stated)	inactive: 108%
COc1ccc(OC)c(NC(=O)c2cc3c(=O)oc4ccccc4c3s2)c1	inactive: 103%
CCCCSCCCNC(=O)CN1C(=O)c2cccnc2Oc2ccc(Cl)cc21	inactive: 67%
CCOc1ccc(-c2nonc2NC(=O)c2oc3cc(C)ccc3c2C)cc1	inactive: 85%
Cc1ccc(S(=O)(=O)N(CC(=O)N2CCC(C(N)=O)CC2)c2ccccc2F)cc1	inactive: 98%
Cc1ccccc1C(=O)N/C(=C/c1ccc(-c2cccnc2Cl)o1)C(=O)NC1CC1	inactive: 115%
O=C(NCc1ccc(F)cc1)c1ccc2c(Cl)c3c(nc2c1)CCCC3	inactive: 62%
CCc1nc2c(Cl)cc(Cl)cc2c(=O)o1	inactive: 102%
Fc1ccc(-c2noc3ncnc(N4CCN(c5ccccc5)CC4)c23)cc1	inactive: 82%
COc1ccc(S(=O)(=O)N2CCN(c3ccccc3F)CC2)cc1-c1noc(C)n1	inactive: 100%
COc1ccc(NC(=O)C2CCN(S(=O)(=O)c3ccc4[nH]c(=O)ccc4c3)CC2)c(OC)c1	inactive: 87%
Cc1cn2c(=O)cc(COc3cccc(NC(=O)c4ccccc4C)c3)nc2s1	inactive: 81%
CC(=O)N1CCOc2cc(S(=O)(=O)Nc3cccc(C(F)(F)F)c3)c(Cl)cc21	inactive: 93%
CCOC(=O)c1ccccc1NC(=O)C(=O)Nc1ccc2nc3n(c(=O)c2c1)CCCCC3	inactive: 123%
CCc1cccc(-n2c(C)nc3c(cnn3-c3ccc(Cl)cc3)c2=O)c1	active: -2%
N#CC(C#N)=C1CCCCCN1	inactive: 109%
CCOC(=O)c1c(-c2ccccc2)oc2ccc(N(C(C)=O)S(=O)(=O)c3cc(C)ccc3C)cc12	inactive: 85%
Cc1cc(C)cc(NC(=O)N2CCC(N3CCCCC3)CC2)c1	inactive: 103%

SMILES	survival
COc1ccc(OC)c(NC(=O)Cc2coc3ccc(C(C)C)cc23)c1	inactive: 91%
CCOC(=O)c1[nH]c(C)c(CCC(=O)NCc2ccccc2)c1C	inactive: 73%
Cc1ccc(O)c(C(CC(=O)NCC2(c3ccccc3)CCCC2)c2ccccc2)c1 (configuration not stated)	active: 6%
CCc1c(C)nc(SCC(=O)N2CCN(c3ccccc3OC)CC2)[nH]c1=O	inactive: 90%
CC(=O)Nc1ccc(S(=O)(=O)N2CCC(NC(C)=O)(c3cccc(F)c3)CC2)cc1	inactive: 107%
CCOc1ccc(CNC(=O)C2CCN(c3nnc(-n4cccc4CNc4ccc(C)cc4)s3)CC2)cc1OC	inactive: 93%
O=C(O)Cn1cc(C=C2C(=O)NC(=S)NC2=O)c2ccccc21	inactive: 108%
CCOC(=O)c1ccccc1NC(=O)Cn1cc(C(=O)c2cccc(OC)c2)c(=O)c2ccc(C)nc21	inactive: 58%
CCOC(=O)c1c(C)[nH]c(CCC(=O)NCCCN2CCN(c3ccc(F)cc3)CC2)c1C	inactive: 70%
Cc1ccc(CCNC(=O)c2ccc3c(c2)N(Cc2cccc(C)c2)C(=O)c2ccccc2S3(=O)=O)cc1	inactive: 88%
COc1ccc2cc(CNC3CCCCC3)c(=O)[nH]c2c1	inactive: 108%
CC(C)c1ccc(NC(=O)c2cc3c(s2)-c2ccccc2SC3)cc1	inactive: 91%
Cc1cccc(-c2nc(S(=O)(=O)c3ccc(F)cc3)c(N3CCN(c4ccccc4)CC3)o2)c1	inactive: 113%
O=C(CN1C(=O)COc2ccc(S(=O)(=O)N3CCCCCC3)cc21)NCc1ccc(Cl)cc1	inactive: 132%
Cc1cc(=O)[nH]c2nnc(SCC(=O)NC(C)(C)C)n12	inactive: 73%
COc1cc2c(cc1OC)C(COc1ccccc1OC)N(C(=O)CC(C)C)CC2 (configuration not stated)	inactive: 82%
O=C(Nc1ccc2oc(=O)ccc2c1)c1cccc(F)c1	inactive: 106%
CCc1ccc(N=C2NC(=O)CC(C(=O)Nc3ccc(OC)cc3)S2)cc1 (configuration not stated)	inactive: 110%
CN(C)S(=O)(=O)c1ccc(NC(=O)CNCc2ccco2)cc1	inactive: 115%
